# According to the supplement of paper PMC8728848:
# The other results are listed elsewhere or left out.
# Legend:
# Test in all cases: glycan array binding signal (z-score within array); higher = stronger binding
# Details in all cases: glycan notation: IUPAC condensed, linker removed
# [1] = molecular target: Fuc(a1-3)[Gal(b1-4)]GlcNAc(b1-3)Gal(b1-4)[Fuc(a1-3)]GlcNAc(b1-3)Gal(b1-4)[Fuc(a1-3)]GlcNAc
# Method in brief: (§1)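 From the Consortium for Functional Glycomics database, 3228 arrays were curated, keeping only those whose protein sequence was available. Binding is given as a within-array Z-score averaged across arrays sharing a protein sequence and across linkers. Negative Z-scores can be read as non-binding.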
# [2] = molecular target: Fuc(a1-3)[Gal(b1-4)]GlcNAc(b1-3)GalNAc
# Method in brief: as §1
# [3] = molecular target: Fuc(a1-3)[Gal(b1-4)]GlcNAc(b1-6)GalNAc
# Method in brief: as §1
# [4] = molecular target: Fuc(a1-3)[Gal(b1-4)]GlcNAc(b1-6)[Gal(b1-3)GlcNAc(b1-3)]Gal(b1-4)Glc
# Method in brief: as §1
# [5] = molecular target: Fuc(a1-3)[Gal(b1-4)]GlcNAc6S
# Method in brief: as §1
# [6] = molecular target: Fuc(a1-3)[Gal3S(b1-4)]Glc
# Method in brief: as §1
# [7] = molecular target: Fuc(a1-3)[Gal3S(b1-4)]GlcNAc
# Method in brief: as §1
# [8] = molecular target: Fuc(a1-3)[Gal3S(b1-4)]GlcNAc6S
# Method in brief: as §1
# [9] = molecular target: Fuc(a1-3)[GalNAc(b1-4)]GlcNAc
# Method in brief: as §1
# [10] = molecular target: Fuc(a1-3)[GalNAc(b1-4)]GlcNAc6S
# Method in brief: as §1
# Fuc(a1-4)GlcNAc = molecular target: Fuc(a1-4)GlcNAc
# Method in brief: as §1
# Fuc(b1-3)GlcNAc = molecular target: Fuc(b1-3)GlcNAc
# Method in brief: as §1
# Gal(a1-2)Gal = molecular target: Gal(a1-2)Gal
# Method in brief: as §1
# Gal(a1-3)Gal = molecular target: Gal(a1-3)Gal
# Method in brief: as §1
# Gal(a1-3)Gal(b1-3)GlcNAc = molecular target: Gal(a1-3)Gal(b1-3)GlcNAc
# Method in brief: as §1
# [11] = molecular target: Gal(a1-3)Gal(b1-3)GlcNAc(b1-2)Man
# Method in brief: as §1
# [12] = molecular target: Gal(a1-3)Gal(b1-3)GlcNAc(b1-2)Man(a1-3)[Gal(a1-3)Gal(b1-3)GlcNAc(b1-2)Man(a1-6)]Man(b1-4)GlcNAc(b1-4)GlcNAc
# Method in brief: as §1
# [13] = molecular target: Gal(a1-3)Gal(b1-3)GlcNAc(b1-3)GalNAc
# Method in brief: as §1
# [14] = molecular target: Gal(a1-3)Gal(b1-3)GlcNAc(b1-6)GalNAc
# Method in brief: as §1
# [15] = molecular target: Gal(a1-3)Gal(b1-3)[Fuc(a1-4)]GlcNAc(b1-2)Man(a1-3)[Gal(a1-3)Gal(b1-3)[Fuc(a1-4)]GlcNAc(b1-2)Man(a1-6)]Man(b1-4)GlcNAc(b1-4)GlcNAc
# Method in brief: as §1
# Gal(a1-3)Gal(b1-4)Glc = molecular target: Gal(a1-3)Gal(b1-4)Glc
# Method in brief: as §1
# Gal(a1-3)Gal(b1-4)GlcNAc = molecular target: Gal(a1-3)Gal(b1-4)GlcNAc
# Method in brief: as §1
# [16] = molecular target: Gal(a1-3)Gal(b1-4)GlcNAc(b1-2)Man
# Method in brief: as §1
# [17] = molecular target: Gal(a1-3)Gal(b1-4)GlcNAc(b1-2)Man(a1-3)[Gal(a1-3)Gal(b1-4)GlcNAc(b1-2)Man(a1-6)]Man(b1-4)GlcNAc(b1-4)GlcNAc
# Method in brief: as §1
# [18] = molecular target: Gal(a1-3)Gal(b1-4)GlcNAc(b1-3)GalNAc
# Method in brief: as §1
# [19] = molecular target: Gal(a1-3)Gal(b1-4)GlcNAc(b1-6)GalNAc
# Method in brief: as §1
# [20] = molecular target: Gal(a1-3)Gal(b1-4)[Fuc(a1-3)]GlcNAc
# Method in brief: as §1
# [21] = molecular target: Gal(a1-3)Gal(b1-4)[Fuc(a1-3)]GlcNAc(b1-2)Man(a1-3)[Gal(a1-3)Gal(b1-4)[Fuc(a1-3)]GlcNAc(b1-2)Man(a1-6)]Man(b1-4)GlcNAc(b1-4)GlcNAc
# Method in brief: as §1
# Gal(a1-3)GalNAc = molecular target: Gal(a1-3)GalNAc
# Method in brief: as §1
# [22] = molecular target: Gal(a1-3)[Gal(a1-4)]Gal(b1-4)GlcNAc
# Method in brief: as §1
# [23] = molecular target: Gal(a1-4)Gal(b1-3)GlcNAc(b1-2)Man(a1-3)[Gal(a1-4)Gal(b1-3)GlcNAc(b1-2)Man(a1-6)]Man(b1-4)GlcNAc(b1-4)GlcNAc
# Method in brief: as §1
# Gal(a1-4)Gal(b1-4)Glc = molecular target: Gal(a1-4)Gal(b1-4)Glc
# Method in brief: as §1
# Gal(a1-4)Gal(b1-4)GlcNAc = molecular target: Gal(a1-4)Gal(b1-4)GlcNAc
# Method in brief: as §1
# [24] = molecular target: Gal(a1-4)Gal(b1-4)GlcNAc(b1-2)Man(a1-3)[Gal(a1-4)Gal(b1-4)GlcNAc(b1-2)Man(a1-6)]Man(b1-4)GlcNAc(b1-4)GlcNAc
# Method in brief: as §1
# [25] = molecular target: Gal(a1-4)Gal(b1-4)GlcNAc(b1-3)Gal(b1-4)Glc
# Method in brief: as §1
# Gal(a1-4)GlcNAc = molecular target: Gal(a1-4)GlcNAc
# Method in brief: as §1
# Gal(a1-6)Glc = molecular target: Gal(a1-6)Glc
# Method in brief: as §1
# Gal(b1-2)Gal = molecular target: Gal(b1-2)Gal
# Method in brief: as §1
binder,measurement,setting,value
FliD (Clostridium difficile) (protein) MSSISPVRVTGLSGNFDMEGIIEASMIRDKEKVNKAKQDQQIVKWKQEIYRDIIKESKNLYDKYLNGDSPNSITNKKAYSATRITSSDESIIVAKGSAGAEKINYQFAVSQMAEPAKVTIKLNSSDPIVQQFPPNASGASSLNIGGVNIPISEQDTTSTIVSKINSLCADNDIRASYSEMTGELIISRKQTGSSSDIDLKVIGNDSLAGQIASDNGITFTTDASGTKSAVVYGKNLEADVTDDQGRVTHISKEQNSFKIDNIDYNVNSKGSAKLVSVTDTEEATKNMKAFVDDYNALMDKVYGLVTTKKSKDYPPLTDEQKDDMTTEEIEKWEKKAKEGILRNDDELRAFVEDIQSMFFGDADTIIALRKLGISEHENYNKKGQISFNADTFSKALIDDSDKVYKALAGYSSNYDDKGMFEKLKKIVFEYSGSSASKLTKKAGMENSSSASQNVYSKQIAEQERNISRLVEKMNDKEKRLYAKYSALESLLNKYSSQMNYFSQAQGN,glycan array binding signal (z-score),[1],-0.23
same,glycan array binding signal (z-score),[2],-0.187
same,glycan array binding signal (z-score),[3],0.029
same,glycan array binding signal (z-score),[4],-0.179
same,glycan array binding signal (z-score),[5],0.05
same,glycan array binding signal (z-score),[6],-0.047
same,glycan array binding signal (z-score),[7],0.003
same,glycan array binding signal (z-score),[8],-0.134
same,glycan array binding signal (z-score),[9],-0.171
same,glycan array binding signal (z-score),[10],-0.16
same,glycan array binding signal (z-score),Fuc(a1-4)GlcNAc,-0.177
same,glycan array binding signal (z-score),Fuc(b1-3)GlcNAc,-0.183
same,glycan array binding signal (z-score),Gal(a1-2)Gal,0.025
same,glycan array binding signal (z-score),Gal(a1-3)Gal,0.022
same,glycan array binding signal (z-score),Gal(a1-3)Gal(b1-3)GlcNAc,12.1
same,glycan array binding signal (z-score),[11],-0.125
same,glycan array binding signal (z-score),[12],-0.116
same,glycan array binding signal (z-score),[13],0.003
same,glycan array binding signal (z-score),[14],-0.173
same,glycan array binding signal (z-score),[15],-0.197
same,glycan array binding signal (z-score),Gal(a1-3)Gal(b1-4)Glc,-0.038
same,glycan array binding signal (z-score),Gal(a1-3)Gal(b1-4)GlcNAc,-0.151
same,glycan array binding signal (z-score),[16],-0.211
same,glycan array binding signal (z-score),[17],0.665
same,glycan array binding signal (z-score),[18],-0.19
same,glycan array binding signal (z-score),[19],-0.204
same,glycan array binding signal (z-score),[20],0.134
same,glycan array binding signal (z-score),[21],-0.093
same,glycan array binding signal (z-score),Gal(a1-3)GalNAc,-0.255
same,glycan array binding signal (z-score),[22],0.673
same,glycan array binding signal (z-score),[23],0.553
same,glycan array binding signal (z-score),Gal(a1-4)Gal(b1-4)Glc,-0.264
same,glycan array binding signal (z-score),Gal(a1-4)Gal(b1-4)GlcNAc,-0.161
same,glycan array binding signal (z-score),[24],0.556
same,glycan array binding signal (z-score),[25],0.027
same,glycan array binding signal (z-score),Gal(a1-4)GlcNAc,1.22
same,glycan array binding signal (z-score),Gal(a1-6)Glc,0.118
same,glycan array binding signal (z-score),Gal(b1-2)Gal,1.49
